Whole data set: some 2,300 sequences, median “median log2 fold change of GCK-ALFA target abundance (FLAG IP / Myc IP barcode read proportion)” near 0.095, cut for the lowest 2% near -0.47. This is one part of the list.

We go through 8 molecules from the supplement of paper PMC12632987.

To fix the notation:
B1: LC3A_28_887 (protein)
chain: SAALESAQAALAEVKAAVAAGDQSPLVLEVTAPSDQENTEKFIALLEEIAAAASALSGVTIVIDIPESVSQENRDKIIDAAEAIEEKYPNVTVIIALPES
B2: LC3A_free_39_2189 (protein)
chain: SAEEAQKAIEELLALAKEEGEETEELAREIVKLIGEDLEYLKRLLELVKQLKEEGVDLKEALKEALELAKRLKAEGKSKEEIAEAVLELLQDRINLIPID
B3: LC3A_17_556 (protein)
chain: MEELREEIEELLKELEELVKKLKEYDPEAAKRLEKKLEEAKKLLEEGKLREALKTLEEAAREAADIFEELEHIDPEKMSILEMEANGLEIEALSLLMKLE
B4: LC3A_28_913 (protein)
chain: SALDASTAAALAEIAAAAAAGEPAVVRLRVTSADPAEARAEAERALRRLAAAAREHPGVTIIVDAPERVADEVIAVADEVQAELDAENPSNHIIVALEEP
B5: LC3A_28_637 (protein)
chain: SAIDEEIEKLLEEAERAAAAGEEVVLTLEVGGDTDEEDVEKIIEALREVAEILKDLPRTSIIIDVDGGVKQELIDKLADAAEEIEKEYPNVTVIIALDEE
B6: LC3A_3_1502 (protein)
chain: MEELLEETRKILKEMGFSEEVIELAVKALKLLLERGYEKAAETLIELLKEMKDLSNETMLEFMEEVLELLETSDDSEEEIIEKIKEIATIARNAAEIEEL
B7: LC3A_45_1970 (protein)
chain: MARVTIDLLVPKEKAEKALEIIKEKFEELEKKYKGKIRFDRETLEKSYEESKDEEEVYLEVVIEAETRELALEAADEIIEELNKELGYNVAAIISVEDLP
B8: LC3A_147_405 (protein)
chain: YRLTVDIDILIKNKPELVKELVERIEKALKAKGLEVEVEIKEEKIDENTWFIEVKIKVKAETEEEAQEAADLILDIIDEFEEENKDEILGSLISVEIEKE

The target in this experiment is MAP1LC3A, Q9H492. Kind of experiment: median log2 fold change of GCK-ALFA target abundance (FLAG IP / Myc IP barcode read proportion) (log2 ratio); each designed protein is fused to an ALFA-tag nanobody in HEK293 cells to bring the named protein to FLAG-tagged glucokinase (GCK); Myc marks an untargeted standard; higher = target protein stabilised (more abundant). To be noted: target protein: 3xFLAG-MCP-GCK-ALFA reporter; HEK293 landing pad (RPLP). A digest of the protocol:
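The readout is target abundance, the per-binder median log2 ratio of FLAG to Myc barcode read proportions. It came from HEK293 landing-pad cells carrying a recombined ALFA-nanobody-fused binder library, induced with 2 μg mL^−1 doxycycline and transfected with a plasmid for a FLAG-tagged target and a Myc-tagged standard. After 48 h, lysates were immunoprecipitated with anti-FLAG and anti-Myc, and circular RNA barcodes were reverse transcribed, amplified and sequenced. Each barcode needed a proportion of at least 10^−7 in both replicates and each binder at least 3 barcodes per replicate, a pseudocount of 10^−6 was added, and the replicates were pooled.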
On to B1, for which the “median log2 fold change” value was -0.272.

Consider B2, for which the “median log2 fold change” value came out at 0.389.

As to B3, the “median log2 fold change” value is 0.394.

Regarding B4, the “median log2 fold change” value stood at 0.197.

Turning to B5, the “median log2 fold change” value stood at 0.0754.

For B6, the “median log2 fold change” value was 0.315.

As to B7, the “median log2 fold change” value was 0.0441.

For the molecule B8, the “median log2 fold change” value is 0.0155.
